# Laboratory results: paper PMC4336329 (PLoS ONE, 2015)
# Out of some 310,000 compounds screened, about 14,000 (4.5%) showed an effect of 50% or more. The effect is printed as a negative number. The list shows a part of the results.
# Molecular target: human ether-à-go-go-related gene (hERG) potassium channel (human, UniProt Q12809)
# Test: primary screen, population patch clamp on CHO cells stably expressing hERG
# 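Further: peak tail current of the secondary pulse compared with the same well before compound.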
# Sequence of human ether-à-go-go-related gene (hERG) potassium channel (Q12809 whole entry, looked up): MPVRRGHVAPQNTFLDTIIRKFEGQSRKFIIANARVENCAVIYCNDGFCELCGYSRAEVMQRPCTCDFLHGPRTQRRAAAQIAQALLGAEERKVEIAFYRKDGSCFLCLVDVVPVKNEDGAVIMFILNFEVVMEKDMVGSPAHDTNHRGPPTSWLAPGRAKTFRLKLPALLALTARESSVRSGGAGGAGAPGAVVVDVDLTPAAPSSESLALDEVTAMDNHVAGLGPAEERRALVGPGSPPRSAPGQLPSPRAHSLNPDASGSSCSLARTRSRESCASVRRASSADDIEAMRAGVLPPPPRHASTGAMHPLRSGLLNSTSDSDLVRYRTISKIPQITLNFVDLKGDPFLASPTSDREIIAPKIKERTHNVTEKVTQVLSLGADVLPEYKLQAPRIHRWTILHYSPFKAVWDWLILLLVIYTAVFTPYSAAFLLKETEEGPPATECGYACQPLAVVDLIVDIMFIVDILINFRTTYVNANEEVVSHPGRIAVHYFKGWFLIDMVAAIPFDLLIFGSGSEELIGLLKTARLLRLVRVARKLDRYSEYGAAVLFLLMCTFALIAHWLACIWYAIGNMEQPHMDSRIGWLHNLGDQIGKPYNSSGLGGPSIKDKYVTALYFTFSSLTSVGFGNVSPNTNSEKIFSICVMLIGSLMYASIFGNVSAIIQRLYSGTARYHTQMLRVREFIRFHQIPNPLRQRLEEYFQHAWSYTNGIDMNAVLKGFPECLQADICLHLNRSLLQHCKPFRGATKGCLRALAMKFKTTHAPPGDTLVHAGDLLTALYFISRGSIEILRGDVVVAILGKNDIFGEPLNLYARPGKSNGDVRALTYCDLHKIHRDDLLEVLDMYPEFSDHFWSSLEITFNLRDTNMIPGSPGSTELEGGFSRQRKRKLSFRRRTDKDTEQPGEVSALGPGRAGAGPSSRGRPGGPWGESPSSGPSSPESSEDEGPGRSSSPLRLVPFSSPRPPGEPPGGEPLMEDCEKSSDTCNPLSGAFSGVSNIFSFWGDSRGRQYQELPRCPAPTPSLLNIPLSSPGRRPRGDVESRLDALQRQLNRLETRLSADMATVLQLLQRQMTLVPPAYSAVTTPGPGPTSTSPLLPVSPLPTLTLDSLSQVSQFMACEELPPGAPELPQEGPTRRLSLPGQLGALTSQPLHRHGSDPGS
row,SMILES,"hERG current change (%, negative = inhibition) at 10uM [%]"
1,CCCC(=O)N1CCCC(C(=O)c2cccc(OC(C)C)c2)C1 (stereo not drawn),3.64
2,COC(=O)c1cccc(N2C(=O)c3cccnc3C2=O)c1,0.872
3,O=C(CCS(=O)(=O)c1ccc2c(c1)NC(=O)CS2)NCc1cccs1,-21.3
4,C#CC1(NC(=O)NS(=O)(=O)c2ccc(C)cc2)CCCCC1,-12.7
5,Cc1c(CCC(=O)NCCCCCC(=O)O)c(=O)oc2c(C)c3oc4c(c3cc12)CCCC4,21
6,Cc1ccc(NC(=O)CN(C)S(=O)(=O)c2cccs2)cc1C,-9.54
7,COc1ccc(NC(=O)CSc2nnc(-c3ccncc3)n2C)cc1,26.5
8,CN(C)c1nc(N)nc(Cn2nnc(-c3ccc(C(F)(F)F)cc3)n2)n1,33.1
9,CN(C)/N=C/c1c(O)ccc2ccccc12,-4.31
10,O=C(C/C=N\OCc1ccc([N+](=O)[O-])cc1)Nc1ccc(F)cc1F,-27.1
11,COc1ccc(C(=O)O)cc1NC(=S)NC(=O)Cc1ccc(Cl)cc1,27.6
12,O=C(c1ccc2c(=O)n3c(nc2c1)CCCCC3)N1CCN(c2cccc(Cl)c2)CC1,-41.2
13,Cc1cc(C)cc(-n2c(C)nc3cc(C(=O)O)ccc32)c1,15.9
14,O=C(Nc1ncc(C(F)(F)F)cc1Cl)C1COc2ccccc2O1 (stereo not drawn),-3.76
15,CCCCN(C(=O)CCC(=O)Nc1cc(C)on1)C(C(=O)NC(C)(C)CC)c1cccc(OC)c1OC (stereo not drawn),1.4
16,Cc1cc(C)cc(OCC(=O)NNC(=O)c2ccoc2C)c1,12.1
17,Cc1ccc2[nH]c(C(=O)N/N=C/c3ccccc3O)c(C)c2c1,28.6
18,COCCOC1CCN(C(=O)C2CCC(=O)N(CCc3cccc(F)c3)C2)CC1 (stereo not drawn),0.0129
19,Cc1ccc(S(=O)(=O)NCC(=O)OCC(=O)Nc2ccc3c(c2)OCCO3)cc1,-6.88
20,c1ccc(Cn2nnnc2C(c2cccnc2)N2CCN(c3ccccc3)CC2)cc1 (stereo not drawn),-22.5
21,Cc1ccc(NC(=O)CCNS(=O)(=O)c2cccc3nonc23)cc1,1.21
22,CCOc1cccc(N2C(=O)/C(=C/c3ccco3)C(=O)NC2=S)c1,17.6
23,COc1cccc(C(=O)Nc2ccc3c(c2)CCCN3C(=O)c2cccs2)c1OC,-5.76
24,CCOc1cc(C(c2c(C)[nH][nH]c2=O)c2c(C)[nH][nH]c2=O)ccc1OS(=O)(=O)c1ccc(C)cc1,7.37
